Test results: EPA's CvTdb concentration-time database
Further values from the same series stand in other lists.

Experiments:
Rat [1] = test: concentration in brain after dosing; details: 6 h; dosed: 2-Methyltetrahydrofuran; 100 mg/kg; oral; Female; Harlan Sprague Dawley
Rat [2] = test: concentration in brain after dosing; details: 8 h; dosed: 2-Methyltetrahydrofuran; 400 mg/kg; oral; Male; F344
Rat [3] = test: concentration in brain after dosing; details: 5 min; dosed: 2-Methyltetrahydrofuran; 400 mg/kg; oral; Male; F344
Rat [4] = test: concentration in plasma after dosing; details: 0.75 h; dosed: 2-Methyltetrahydrofuran; 100 mg/kg; oral; Female; Harlan Sprague Dawley
Rat [5] = test: concentration in plasma after dosing; details: 4 h; dosed: 2-Methyltetrahydrofuran; 400 mg/kg; oral; Female; F344
Rat [6] = test: concentration in brain after dosing; details: 1 h; dosed: 2-Methyltetrahydrofuran; 30 mg/kg; oral; Male; F344
Rat [7] = test: concentration in plasma after dosing; details: 4 min; dosed: 2-Methyltetrahydrofuran; 30 mg/kg; oral; Female; F344
Rat [8] = test: concentration in plasma after dosing; details: 12 h; dosed: 2-Methyltetrahydrofuran; 400 mg/kg; oral; Female; F344
Rat [9] = test: concentration in brain after dosing; details: 20 min; dosed: 2-Methyltetrahydrofuran; 100 mg/kg; oral; Female; Harlan Sprague Dawley
Rat [10] = test: concentration in plasma after dosing; details: 20 min; dosed: 2-Methyltetrahydrofuran; 30 mg/kg; oral; Female; F344
Rat [11] = test: concentration in brain after dosing; details: 8 h; dosed: 2-Methyltetrahydrofuran; 400 mg/kg; oral; Male; F344; remark: listed apart in the source
Rat [12] = test: concentration in brain after dosing; details: 20 min; dosed: 2-Methyltetrahydrofuran; 10 mg/kg; iv; Female; F344
Rat [13] = test: concentration in brain after dosing; details: 10 min; dosed: 2-Methyltetrahydrofuran; 10 mg/kg; iv; Male; F344
Rat [14] = test: concentration in brain after dosing; details: 2 h; dosed: 2-Methyltetrahydrofuran; 10 mg/kg; oral; Female; F344
Rat [15] = test: concentration in plasma after dosing; details: 2 min; dosed: 2-Methyltetrahydrofuran; 30 mg/kg; oral; Male; F344
Rat [16] = test: concentration in plasma after dosing; details: 0.75 h; dosed: 2-Methyltetrahydrofuran; 400 mg/kg; oral; Male; F344
Rat [17] = test: concentration in plasma after dosing; details: 20 min; dosed: 2-Methyltetrahydrofuran; 10 mg/kg; oral; Male; F344
Rat [18] = test: concentration in plasma after dosing; details: 8 h; dosed: 2-Methyltetrahydrofuran; 100 mg/kg; oral; Male; Harlan Sprague Dawley
Rat [19] = test: concentration in plasma after dosing; details: 10 min; dosed: 2-Methyltetrahydrofuran; 10 mg/kg; iv; Male; F344
Rat [20] = test: concentration in plasma after dosing; details: dosed: Bromochloroacetic acid, 100 mg/kg, oral, Female, F344
Rat [21] = test: concentration in plasma after dosing; details: 20 min; dosed: Bromochloroacetic acid; 10 mg/kg; iv; Male; F344
Rat [22] = test: concentration in plasma after dosing; details: 3 h; dosed: Fluorotelomer alcohol 8+2; 24 mg/kg; oral; Male; Harlan Sprague Dawley
Rat [23] = test: concentration in plasma after dosing; details: dosed: Fluorotelomer alcohol 8+2, 40 mg/kg, oral, Female, Harlan Sprague Dawley
Rat [24] = test: concentration in plasma after dosing; details: 3 h; dosed: Fluorotelomer alcohol 8+2; 40 mg/kg; oral; Female; Harlan Sprague Dawley
Rat [25] = test: concentration in plasma after dosing; details: dosed: Formamide, 36 mg/kg, oral, Male, Harlan Sprague Dawley
Rat [26] = test: concentration in plasma after dosing; details: dosed: Formamide, 90 mg/kg, iv, Male, Harlan Sprague Dawley
Rat [27] = test: concentration in plasma after dosing; details: dosed: Formamide, 90 mg/kg, iv, Male, Harlan Sprague Dawley; remark: listed apart in the source
Rat [28] = test: concentration in plasma after dosing; details: dosed: Formamide, 36 mg/kg, oral, Male, Harlan Sprague Dawley; remark: listed apart in the source
Rat [29] = test: concentration in plasma after dosing; details: dosed: Formamide, 300 mg/kg, oral, Female, Harlan Sprague Dawley
Rat [30] = test: concentration in plasma after dosing; details: dosed: Formamide, 30 mg/kg, iv, Female, F344
Rat [31] = test: concentration in plasma after dosing; details: 2 min; dosed: Pyridine; 200 mg/kg; oral; Female; F344
Rat [32] = test: concentration in plasma after dosing; details: dosed: Pyridine, 5 mg/kg, oral, Female, F344
Rat [33] = test: concentration in plasma after dosing; details: 20 min; dosed: Pyridine; 10 mg/kg; iv; Male; Harlan Sprague Dawley
Rat [34] = test: concentration in plasma after dosing; details: 1 h; dosed: Pyridine; 0.5 mg/kg; iv; Male; F344
Rat [35] = test: concentration in plasma after dosing; details: dosed: Pyridine, 100 mg/kg, oral, Male, F344
Rat [36] = test: concentration in plasma after dosing; details: 10 min; dosed: Pyridine; 50 mg/kg; oral; Male; Harlan Sprague Dawley
Rat [37] = test: concentration in plasma after dosing; details: 40 min; dosed: Pyridine; 200 mg/kg; oral; Female; F344
Rat [38] = test: concentration in plasma after dosing; details: 20 min; dosed: Pyridine; 50 mg/kg; oral; Male; Harlan Sprague Dawley

CC1CCCO1 (stereo not drawn) [2-Methyltetrahydrofuran]
Details | concentration in brain [µg/g] | concentration in plasma [ng/mL]
Rat [1] | 5.22 | –
Rat [2] | 44.1 | –
Rat [3] | 135 | –
Rat [4] | – | 47200
Rat [5] | – | 130000
Rat [6] | 7.08 | –
Rat [7] | – | 12400
Rat [8] | – | 14000
Rat [9] | 39.1 | –
Rat [10] | – | 16000
Rat [11] | 46.3 | –
Rat [12] | 3.51 | –
Rat [13] | 6.84 | –
Rat [14] | 0.0558 | –
Rat [15] | – | 934
Rat [16] | – | 187000
Rat [17] | – | 3840
Rat [18] | – | 87.3
Rat [19] | – | 9920

O=C(O)C(Cl)Br (stereo not drawn) [Bromochloroacetic acid]
Rat [20]
Details | concentration in plasma [ng/mL]
7 h | 575
20 min | 37700

Details | concentration in plasma [ng/mL]
Rat [21] | 1360

OCCC(F)(F)C(F)(F)C(F)(F)C(F)(F)C(F)(F)C(F)(F)C(F)(F)C(F)(F)F [Fluorotelomer alcohol 8+2]
Details | concentration in plasma [ng/mL]
Rat [22] | 195
Rat [24] | 215

Rat [23]
Details | concentration in plasma [ng/mL]
0.75 h | 1130
12 h | 36.2

NC=O [Formamide]
Details | concentration in plasma [ng/mL]
Rat [25], 1 h | 45300
Rat [25], 72 h | 2600
Rat [26], 1 h | 156000
Rat [26], 3 h | 156000
Rat [27], 2 h | 169000
Rat [27], 96 h | 3200
Rat [28], 0.5 h | 34200
Rat [28], 48 h | 7800
Rat [29], 0.25 h | 137000
Rat [29], 5 h | 267000
Rat [30], 8 h | 25000
Rat [30], 12 h | 17100

c1ccncc1 [Pyridine]
Details | concentration in plasma [ng/mL]
Rat [31] | 66000
Rat [33] | 3770
Rat [34] | 52.5
Rat [36] | 44500
Rat [37] | 108000
Rat [38] | 39200

concentration in plasma [ng/mL]
Details | 0.5 h | 1 h | 6 h | 8 h
Rat [32] | 3450 | – | 2000 | –
Rat [35] | – | 49700 | – | 64100
